# Source: article PMC4336329 (PLoS ONE, 2015)
# Screen size: about 310,000 compounds; about 2,200 (0.71%) showed an effect of 50% or more. Effects have a minus sign here. The list shows a part of the results.
# Molecular target: human ether-à-go-go-related gene (hERG) potassium channel (human, UniProt Q12809)
# Assay: primary screen, population patch clamp on CHO cells stably expressing hERG
# human ether-à-go-go-related gene (hERG) potassium channel, sequence (Q12809 whole entry, looked up): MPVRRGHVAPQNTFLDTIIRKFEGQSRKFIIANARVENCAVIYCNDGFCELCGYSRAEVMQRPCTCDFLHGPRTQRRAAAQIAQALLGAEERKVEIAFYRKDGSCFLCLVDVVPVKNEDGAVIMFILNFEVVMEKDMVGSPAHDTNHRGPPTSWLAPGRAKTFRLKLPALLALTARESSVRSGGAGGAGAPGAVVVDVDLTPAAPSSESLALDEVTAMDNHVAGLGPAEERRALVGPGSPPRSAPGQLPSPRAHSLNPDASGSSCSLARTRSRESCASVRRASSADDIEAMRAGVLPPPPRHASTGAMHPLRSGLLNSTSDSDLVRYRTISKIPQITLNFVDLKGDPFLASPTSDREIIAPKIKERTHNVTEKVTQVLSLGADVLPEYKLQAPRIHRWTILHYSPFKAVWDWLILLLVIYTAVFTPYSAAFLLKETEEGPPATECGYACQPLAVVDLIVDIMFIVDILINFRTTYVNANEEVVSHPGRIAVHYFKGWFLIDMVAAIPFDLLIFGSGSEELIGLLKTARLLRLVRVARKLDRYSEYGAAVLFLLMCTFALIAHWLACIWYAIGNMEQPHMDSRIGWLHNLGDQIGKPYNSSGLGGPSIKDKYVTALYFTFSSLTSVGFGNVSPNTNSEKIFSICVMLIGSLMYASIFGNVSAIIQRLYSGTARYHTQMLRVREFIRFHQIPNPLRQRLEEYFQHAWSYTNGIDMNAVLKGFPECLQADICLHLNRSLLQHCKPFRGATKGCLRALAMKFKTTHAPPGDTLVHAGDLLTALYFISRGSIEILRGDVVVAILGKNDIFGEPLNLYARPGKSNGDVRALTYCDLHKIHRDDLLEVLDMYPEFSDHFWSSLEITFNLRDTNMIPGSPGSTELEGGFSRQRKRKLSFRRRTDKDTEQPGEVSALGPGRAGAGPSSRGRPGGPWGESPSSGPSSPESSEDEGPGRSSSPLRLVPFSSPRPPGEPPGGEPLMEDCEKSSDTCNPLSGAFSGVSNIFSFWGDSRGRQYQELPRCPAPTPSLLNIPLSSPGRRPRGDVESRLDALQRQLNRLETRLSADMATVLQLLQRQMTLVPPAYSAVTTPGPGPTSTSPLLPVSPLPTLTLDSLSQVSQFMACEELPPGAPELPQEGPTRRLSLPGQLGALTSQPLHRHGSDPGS
row,Structure (SMILES),"hERG current change (%, negative = inhibition) at 1uM"
1,Cn1cnnc1SCC(=O)N(Cc1ccc2c(c1)OCO2)C1(C(=O)NC2CCCCC2)CCCC1,7.11%
2,Cc1ccc(SCCn2nc(C(=O)O)c3ccccc3c2=O)cc1,8.49%
3,COc1ccc(OCC(=O)N/N=C2\CCCCc3ccccc32)cc1,13%
4,Cc1cnc(C(=O)OCC(=O)Nc2ccc(Cl)cc2)cn1,4.91%
5,O=C(Nc1ncn[nH]1)c1ccc(S(=O)(=O)N2CCOCC2)cc1,4.21%
6,Cc1nc(-c2ccc(NC(=O)c3ccccc3Br)cc2)cs1,11.8%
7,COc1ccc(NC(=O)c2oc3ccccc3c2NC(=O)c2ccco2)cc1,-0.49%
8,COc1ccc(COCC(O)CN2CCC(CN3C(=O)c4cccc5cccc(c45)C3=O)CC2)cc1OC.Cl (stereo not shown),-20.2%
9,Cc1ccc(-c2nnc(N3CCN(C(=O)c4ccco4)CC3)c3ccccc23)cc1,-18.1%
10,CCN(CC)C(=O)CSc1nnc(-c2cccc(OC)c2)o1,6.02%
11,CCCC(=O)Nc1ccc(NC(=O)c2ccco2)cn1,10.2%
12,COC(=O)c1c(C)noc1-c1ccc(Cl)cc1,4.17%
13,CCc1ccccc1NC(=S)N(CCN(C)C)C(C)c1cccnc1 (stereo not shown),9.21%
14,CN(C)CCn1c2c(c(SCC(=O)Nc3ccc4c(c3)OCCO4)nc1=O)CCC2,6.44%
15,Cc1cc(N(C)Cc2ccccc2)nc2cc(O)ccc12,-18.9%
16,CCc1cc(=O)oc2cc(OCc3ccc(C(=O)O)o3)ccc12,22.3%
17,CCOC(=O)CN1C(=O)C2Cc3ccccc3CN2C1=S (stereo not shown),-8.2%
18,COc1ccc(OCC(=O)OCC(=O)c2ccc(OC)c(F)c2)cc1,6.96%
19,COc1ccc(-c2oc3ccc(N4CCOCC4)cc3c2/C=C/c2ccc(OC)c(OC)c2)cc1,11.1%
20,Cn1c(=O)[nH]c(=O)c2c1nc(CN1CCOCC1)n2CCc1ccccc1,13%
21,O=C(NC(=S)NC1CCSC1=O)c1ccc([N+](=O)[O-])cc1 (stereo not shown),17.5%
22,O=C(Oc1ccccc1)c1cccc(N2C(=O)CCC2=O)c1,3.68%
23,COc1ccc(C(=O)CCC(=O)Nc2ccc(N3CCN(C)CC3)cc2)cc1OC,12%
24,Cc1ccc(-c2csc3ncnc(OCC(=O)NC(=O)NCc4ccco4)c23)cc1,6.78%
25,O=c1ccc2c(o1)/C(=C/C=C(Cl)Cl)CCC2,12.9%
